# Experimental data published in PubChem BioAssay (NCI).
# Where “and” joins values, the source holds several entries; their conditions need not be identical. Equal entries are not always repeated.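 Protocol summary: plate cells (96-well), add compound at 5 concentrations, incubate 48 h, interpolate endpoints linearly. GI50: concentration for 50% inhibition of growth. TGI denotes the concentration required for complete inhibition of growth.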 Square brackets hold non-standard residues; d marks the D form. Peptide text beside a SMILES is read from it. * marks the point of attachment. X23 = COC1=CC(=O)N(C(=O)[C@@H](O*)C(C)C)[C@H]1Cc1ccccc1; Bn2Val = CC(C)[C@@H](C(=O)*)N(Cc1ccccc1)Cc1ccccc1; NMeV = CN[C@H](C(=O)O)C(C)C; dNMeA = CN[C@H](C)C(=O)O
# Tested on: NCI-H322M lung
# Assay: growth of human tumour cells (NCI), 48 h
SMILES,GI50,TGI
COc1cc(-c2nn(-c3cccc(NC(=O)NCCNS(=O)(=O)c4ccc(Cl)cc4)c3)cc2-c2ccncc2)ccc1Cl,1.81 µM,8.1 µM
CC(=O)Oc1c2c(c(OC(C)=O)c3c1n(C(C)=O)c1ccccc1n3C(C)=O)n(C(C)=O)c1ccccc1n2C(C)=O,–,> 100 µM
CC(=Nc1ccccc1)C1=C(O)C(Cc2cccc(F)c2)NC1=O (configuration not stated),0.0796 µM,> 100 µM
C[C@]12CC[C@@H]3c4ccc(O)cc4CC[C@H]3[C@@H]1CC[C@@H]2NS(=O)(=O)c1cccc(Cl)c1,4.62 µM,17.7 µM
NC(=O)COc1c(Br)cc(Br)cc1Br,–,> 100 µM
COc1cc(OC)c(/C=C/C(=O)c2ccc(Nc3ncnc4ccccc34)cc2)c(OC)c1,2.38 µM,7.43 µM
CC(C)NCC(O)c1ccc(O)c2ncccc12 (configuration not stated),–,> 100 µM
CNC(=O)c1cc2nc3ccccc3c(=O)n2c2ccccc12,–,> 10 µM
Cn1c(=O)c2c(nc3n2CCC(=O)N3CCCCl)n(C)c1=O,–,> 100 µM
O=C(O)CN1CCCC(Cc2c[nH]c3ccccc23)C1 (configuration not stated),–,> 100 µM
c1ccc2[nH]c3c(N=NC4=NCCN4)c4ccccc4c-3nc2c1,–,14.6 µM
O=C1C=C2C=CC3CC2(O1)C1CCCCN31 (configuration not stated),23.7 µM and 22.2 µM and 54.9 µM,86.8 µM and 81.4 µM and > 100 µM
Clc1ccc2nc3n[nH]c(Cl)c3nc2c1,–,> 100 µM
CC(CN(C)C)S(=O)(=O)c1ccc(-c2cnc(N)c(C(=O)Nc3ccccc3)n2)cc1 (configuration not stated),11.1 µM,> 73.8 µM
CCOP(=O)(OCC)/C(C#N)=C\c1ccsc1,–,> 100 µM
Cc1ccc(/C(O)=C/c2nc3cccnc3[nH]c2=O)cc1,–,> 100 µM
COc1cccc(Sc2ccc([N+](=O)[O-])c3no[n+]([O-])c23)c1,37.4 µM,> 100 µM
O=C(O)CNc1ccc(Cl)c(Cl)c1,–,87 µM
CC(CN1CC(=O)NC(=O)C1)N1CC(=O)NC(=O)C1 (configuration not stated),–,> 750 µM
Nc1ncnc2c1c(-c1ccc(Oc3ccccc3)cc1)nn2C[C@H]1SSC[C@@H]1O,2.39 µM,26.6 µM
O=C1OCC(c2ccc(O)cc2)=C1c1cc(O)c(O)c(O)c1,> 100 µM,> 100 µM
C[C@]12C(=O)C=CCC1=CC[C@@H]1[C@@H]2[C@H]2CC3(O)C(=O)O[C@@]4(C)[C@H]5C[C@@]6(C)[C@@H]7[C@@]2(O)[C@]1(OC[C@H]6C(=O)O5)O[C@]734 (some centres not stated),–,> 100 µM

SMILES,GI50,TGI
CCCc1n[nH]c(=O)n1N1C(=O)C=CC1=O,–,> 100 µM
C/C(=N/NC(=S)Nc1cccc(Cl)c1)c1ccccn1,–,16 µM
O=C1NCN(c2ccccc2)C12CCN(CCCC(c1ccc(F)cc1)c1ccc(F)cc1)CC2,4.09 µM,16.6 µM
COc1ccc(C(=O)c2c(-c3ccccc3NC(=O)C(F)(F)F)[nH]c3ccccc23)cc1,–,20.6 µM
CCC#CC[C@H](O)C/C=C1/C(=O)C=C[C@@H]1C/C=C\CCCC(=O)OC,3.46 µM,10.2 µM
O=C(O)C1CCN(Cc2oc(CO)cc(=O)c2O)C1 (configuration not stated),–,> 100 µM
CC(C)(C)c1cc(C(=O)C2Cc3ccccc3C(=O)O2)cc(C(C)(C)C)c1O (configuration not stated),–,28.2 µM
CCOc1cc(C(=O)O)c2c(ccc3ccc(OC)c(OC)c32)c1OC,–,> 100 µM
Nc1ncnc2c1ncn2C1OC(CO)C(O)C1NS(=O)(=O)c1ccccc1 (configuration not stated),–,> 100 µM
O=C1OC(c2ccccc2)(c2ccccc2)c2ccc3ccc(F)cc3c21,–,> 100 µM
N#C/C(=C/n1c(=S)[nH]c2ccccc21)C(N)=O,–,> 100 µM
O=C1CCCCC/C1=C\c1cccc([N+](=O)[O-])c1,–,> 100 µM
O=C(NC12CC3CC(CC(C3)C1)C2)C(=O)c1c[nH]c2ccc(Br)cc12,–,> 100 µM
CCC[CH2][Sn]([CH2]CCC)([CH2]CCC)[O]C(=O)C(OC(C)=O)c1ccccc1 (configuration not stated),0.153 µM,0.339 µM
Cc1ccc(-c2c(C#N)[n+](=O)c3cc(F)c(F)cc3n2[O-])cc1,12.3 µM,26.8 µM
O=c1/c(=C/c2c(O)ccc3ccccc23)sc2nc3ccccc3n12,–,> 100 µM
O=C(NNS(=O)(=O)c1ccc(Br)cc1)c1ccc(Cl)cc1NC(=O)C12CC3CC(CC(C3)C1)C2,–,39.2 µM
C[N+](C)(C)CCOC(=O)/C=C/c1cnc[nH]1,–,> 500 µM
CC/C=C\C[C@H](O)C/C=C1/C(=O)C=C[C@@H]1C/C=C\CCCC(=O)OC(C)C,1.64 µM,4.21 µM
COc1ccc(-c2nsc3c2NC(=O)CC3c2ccc3c(c2)OCCO3)cc1 (configuration not stated),43.6 µM,> 100 µM
Nc1ncn(C2OC(COP(=O)(O)O)C(O)C2O)c(=O)n1 (configuration not stated),–,> 100 µM
COc1ccc(N2CN(C)CSC2=S)cc1,–,> 100 µM

SMILES,GI50,TGI
O=C(Nc1ccc2ncnc(Nc3ccc(Oc4cccc(F)c4)c(Cl)c3)c2c1)c1ccc(CN2CCOCC2)cc1,2.37 µM,12.6 µM
C[C@@H](NC(=O)[C@@H]1C[C@]1(C)CO)c1cccc2ccccc12,–,> 100 µM
O=P(O)(O)OCC1OC(n2cnc3c(NCc4ccco4)ncnc32)C(O)C1O (configuration not stated),0.431 µM,> 100 µM
C=C1C(=O)[C@]23C[C@H]1C[C@@H](O)[C@H]2[C@]1(COC3=O)[C@@H](OC(C)=O)CC[C@@](C)(COC(C)=O)[C@H]1C=O,–,> 50 µM
NCCOCn1cc(Cc2cccc(OCc3ccccc3)c2)c(=O)[nH]c1=O,–,> 100 µM
CC(C)=O.O=C([O-])C(F)(F)F.O=C([O-])C(F)(F)F.O=C([O-])C(F)(F)F.O=C([O-])C(F)(F)F.[Rh+2].[Rh+2],> 100 µM,> 100 µM
C=CCNc1nc(O)c(/C=C2\C=Nc3ncccc32)s1,2.19 µM,> 100 µM
COC(=O)[C@H]1[C@@H](O)[C@@]2(O)c3c(OC)cc(OC)cc3O[C@@]2(c2ccc3c(c2)OCO3)[C@@H]1c1ccccc1,–,0.193 µM
O=C(O)C(Br)C(Br)C(=O)O (configuration not stated),–,> 100 µM
CO[C@H]1CC[C@]2(C)C3=CC[C@@]4(C)C(CC[C@@H]4C(C)CC[C@@H](C)C(C)C)C(=CCC2C1)O3 (some centres not stated),–,> 25 µM
COC1=CC(=O)N(C(=O)[C@@H](OC(=O)[C@@H](C)N(C)C(=O)[C@@H]2CCCN2C(=O)[C@H](C(C)C)N(C)C(=O)[C@@H](NC(=O)[C@H](C(C)C)N(Cc2ccccc2)Cc2ccccc2)C(C)C)C(C)C)[C@H]1Cc1ccccc1 (Bn2Val-V[NMeV]P[dNMeA]-X23),–,> 100 µM
CCNC(=O)NNc1ncnc2c1c(-c1ccc(Cl)cc1)cn2-c1ccc(C)cc1,–,62.8 µM
Nc1ccc2nc(Nc3ccc(Cl)c(Cl)c3)cnc2c1,–,58.6 µM
Cc1cc(C(=O)Nc2cc(Oc3ccc4nc(NC(=O)C5CC5)cn4n3)ccc2C)n(C)n1,> 10 µM,> 10 µM
COc1cccc2c1C(=O)c1c(O)c3c(c(O)c1C2=O)C[C@@](O)(C(=O)CN1CCOCC1)C[C@@H]3OC1CC(N)C(O)C(C)O1 (some centres not stated),–,> 84.3 µM
COc1ccc(C2S/C(=C\c3cccc(OC)c3)C(=O)N2NC(=O)Cc2ccccc2)cc1 (configuration not stated),–,> 100 µM
CCOC(=O)C1(C#N)C2(C#N)C(N)=NC(ON=C(C)C)(ON=C(C)C)C12C#N (configuration not stated),–,> 100 µM
COc1cc(OC)cc(-c2nc3sccn3c2/C=N/N=C(N)N)c1,5.99 µM,12.1 µM
COc1ccc(OC)c(NC2=NCCO2)c1,–,> 100 µM
CSc1c2c(C)n[nH]c2nn1-c1ccccc1,–,> 100 µM
C/C(=N\NC(=O)CC#N)C(CN1CCCCC1)C(c1ccccc1)c1c(O)c2ccccc2oc1=O (configuration not stated),–,> 100 µM
O=C1C(C(c2ccc([N+](=O)[O-])cc2)N2CCOCC2)=C(O)C(c2ccccc2)N1c1ccccc1 (configuration not stated),–,> 10 µM
